Data published in PubChem BioAssay AID504339 (National Center for Advancing Translational Sciences (NCATS), 2011).
Hit rate of the full screen: of about 390,000 compounds, about 17,000 (4.4%) were called active. This list was built around the results that the source calls inconclusive (neither active nor inactive); the mix of calls is not that of the screen. The call rests on the fitted dose curve; in most records, active means well fitted inhibition curve with a large enough effect; inconclusive means small, poorly fitted or top-dose-only effect; inactive means no such curve, though single readings can be large or run the other way. Where the call is inconclusive, the potency comes from a doubtful curve fit.
Further: nearly all actives have a fitted effect of over 50% in size.
Potency means the concentration at half of the fitted maximal effect; tags describe the fitted curve by direction and shape.

Each compound was assayed against Lysine-specific demethylase 4A (Homo sapiens) (UniProt O75164) (assay: qHTS Assay for Inhibitors of JMJD2A-Tudor Domain). Settings: AlphaScreen JMJD2A-Tudor / H3K4me3 peptide binding; series mostly up to 114 µM.
UniProt O75164, sequence (O75164 whole entry, looked up, the tested form may be a part): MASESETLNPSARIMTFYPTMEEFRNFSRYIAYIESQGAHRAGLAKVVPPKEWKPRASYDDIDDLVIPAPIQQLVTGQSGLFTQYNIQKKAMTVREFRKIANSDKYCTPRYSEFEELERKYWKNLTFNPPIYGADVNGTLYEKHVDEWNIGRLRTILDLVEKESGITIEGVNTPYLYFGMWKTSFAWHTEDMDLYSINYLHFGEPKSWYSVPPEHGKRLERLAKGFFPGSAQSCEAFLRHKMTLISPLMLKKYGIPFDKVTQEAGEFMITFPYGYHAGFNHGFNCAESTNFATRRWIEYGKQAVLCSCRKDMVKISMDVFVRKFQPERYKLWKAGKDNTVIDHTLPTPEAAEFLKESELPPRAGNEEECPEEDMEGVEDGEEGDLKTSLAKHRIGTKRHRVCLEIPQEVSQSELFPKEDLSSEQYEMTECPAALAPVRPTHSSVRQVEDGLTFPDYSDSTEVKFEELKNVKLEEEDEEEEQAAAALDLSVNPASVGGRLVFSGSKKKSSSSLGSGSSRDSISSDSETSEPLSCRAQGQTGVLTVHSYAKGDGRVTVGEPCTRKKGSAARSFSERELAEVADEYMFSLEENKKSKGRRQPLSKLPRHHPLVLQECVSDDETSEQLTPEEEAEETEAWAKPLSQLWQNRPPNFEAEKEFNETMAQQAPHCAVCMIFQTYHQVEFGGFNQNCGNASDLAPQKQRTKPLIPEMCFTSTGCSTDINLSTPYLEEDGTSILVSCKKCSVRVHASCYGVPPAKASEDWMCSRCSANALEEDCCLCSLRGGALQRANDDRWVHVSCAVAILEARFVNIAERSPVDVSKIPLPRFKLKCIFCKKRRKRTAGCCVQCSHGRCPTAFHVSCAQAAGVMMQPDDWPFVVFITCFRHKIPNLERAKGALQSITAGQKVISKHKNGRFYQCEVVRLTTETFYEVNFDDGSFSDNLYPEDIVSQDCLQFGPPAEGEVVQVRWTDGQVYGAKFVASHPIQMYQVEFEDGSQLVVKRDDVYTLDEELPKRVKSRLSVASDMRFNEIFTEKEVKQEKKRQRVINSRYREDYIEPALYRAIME
`CCOc1ccc(OCCC(=O)OCC(=O)N2CCN(S(=O)(=O)c3ccc(Cl)cc3)CC2)cc1` was tested, and the Potency was inconclusive: 50.1 µM [inhibitor, partial curve]. With `CC1(C)C(C=C(Cl)Cl)C1C(=O)N1CCN(c2ccccc2)CC1` (stereo not drawn) the Potency was “inactive”. In the case of `CCCCC(=O)Nc1nc(C)c(-c2csc(Nc3cc(Cl)ccc3OC)n2)s1`, the Potency is reported as inconclusive: 56.2 µM [inhibitor, partial curve]. `CC(C)CC(NC(=O)COc1ccccc1)C(=O)O` (stereo not drawn) was tested, and the Potency was “inactive”. `CCN(CC)C(=O)C(=O)c1cccn1-c1ccc(C#N)cc1` was tested, and the Potency was “inactive”. `CN(CCOCCOc1ccc2ccccc2c1)Cc1ccccc1` was tested, and the Potency was “inactive”. For `Cc1ccc(NS(=O)(=O)c2ccc(N/N=C/c3ccccc3OCC(=O)O)c([N+](=O)[O-])c2)c(C)c1`, the Potency was inconclusive: 1.41 µM [inhibitor, partial curve]. For `O=C(C[n+]1cc(Br)cc2ccccc21)c1ccc(F)cc1`, the Potency was inconclusive: 63.1 µM [inhibitor, partial curve]. In the case of `Cc1cc(C(=O)NCC2CCCO2)sc1C` (stereo not drawn), the Potency is reported as “inactive”. In the case of `Cc1ccc(-c2nc3c4ccccc4ccn3c2CN2CCCCC2)cc1`, the Potency is reported as inconclusive: 56.2 µM [inhibitor, partial curve]. With `COc1ccc(N2CSC3=C(C#N)C(c4cccc(OC)c4OC)CC(=O)N3C2)cc1` (stereo not drawn) the Potency was active: 20 µM. For `COc1cc([N+](=O)[O-])ccc1NC(=S)Nc1cc(C(=O)OC(C)C)cc(C(=O)OC(C)C)c1`, the Potency was inconclusive: 28.2 µM [inhibitor, partial curve]. With `COc1cc(OC)cc(C(=O)NNC(=O)c2ccc(-n3cncn3)c([N+](=O)[O-])c2)c1` the Potency was “inactive”. With `COc1ccc(-c2nc(=S)[nH][nH]2)cc1OC` the Potency was active: 2.82 µM. With `COc1cc2c(cc1OC)CN(c1ccc(F)cc1[N+](=O)[O-])CC2` the Potency was active: 50.1 µM. In the case of `O=S(=O)(c1ccc(NC(=S)NN=Cc2ccccc2O)cc1)N1CCCCC1`, the Potency is reported as inconclusive: 4.47 µM [inhibitor, full curve, poor fit]. For `Cc1c(Cc2ccccc2)c(=O)oc2c(CN(C)C)c(O)c(Cl)cc12`, the Potency was inconclusive: 10 µM [inhibitor, full curve, poor fit]. With `Cc1cccc(NC(=S)NNC(=O)COc2ccc(Cl)cc2Cl)c1` the Potency was “inactive”. For `O=C(CSc1nn(-c2ccc(F)cc2)c(=S)s1)NC(=O)NCc1ccco1`, the Potency was inconclusive: 79.4 µM [inhibitor, partial curve]. `Cc1ccc(C2(C)NC(=O)N(CC(=O)c3ccc(Cl)s3)C2=O)cc1` (stereo not drawn) was tested, and the Potency was inconclusive: 56.2 µM [inhibitor, partial curve]. `Cc1c(Br)c([N+](=O)[O-])nn1CCCC(=O)Nc1sc2c(c1C#N)CCC2` was tested, and the Potency was active: 50.1 µM. In the case of `Cc1ccc(S(=O)(=O)Oc2ccc3c(c2)O/C(=C\c2cccnc2)C3=O)cc1`, the Potency is reported as inconclusive: 10 µM [inhibitor, full curve, poor fit]. `Cc1ccc(NC(=O)CSc2ncc(-c3ccccc3)n2C(=O)c2ccccc2)cc1` was tested, and the Potency was inconclusive: 35.5 µM [inhibitor, full curve]. In the case of `CC(C)(C)S(=O)N1Cc2cc(CO)cc(CCO)c2[C@@H]1CCO` (stereo partly drawn), the Potency is reported as “inactive”. `Cc1ccc(/C=C/C(=O)c2ccccc(=O)c2O)cc1C` was tested, and the Potency was active: 79.4 µM. `Cc1ccc(S(=O)(=O)NC(=O)c2cc(C)n(C3CC3)c2C)cc1` was tested, and the Potency was inconclusive: 79.4 µM [inhibitor, single point]. In the case of `O=C(O)Cn1c(-c2ccccn2)nc2ccccc21`, the Potency is reported as active: 50.1 µM. With `Oc1ccc(N=Nc2n[nH]c(-c3ccc(Cl)cc3)n2)cc1` the Potency was inconclusive: 39.8 µM [inhibitor, partial curve]. In the case of `O=C1NC(=Nc2ccccc2Cl)S/C1=C\c1cc([N+](=O)[O-])ccc1O`, the Potency is reported as inconclusive: 44.7 µM [inhibitor, partial curve]. For `COC(=O)[C@H]1[C@H]2C[C@@H]3c4[nH]c5cc(OC)ccc5c4CCN3C[C@H]2C[C@@H](OC(=O)c2ccc(N)cc2)[C@@H]1OC`, the Potency was inconclusive: 44.7 µM [inhibitor, partial curve]. `O=C(Cn1cnc([N+](=O)[O-])c1)NC1CCCC1` was tested, and the Potency was “inactive”. With `COc1cc(NC(=O)CCn2nc(C)cc2C)cc(OC)c1OC` the Potency was “inactive”. For `CC1(C)Cc2c(sc3nn[nH]c(=O)c23)CO1`, the Potency was “inactive”. With `CS(=O)(=O)c1ccc2nc(NC(=O)CN3CCN(Cc4ccccc4)CC3)sc2c1` the Potency was inconclusive: 14.1 µM [inhibitor, full curve]. With `c1ccc(CN2CCN(c3nc4ccccc4s3)CC2)cc1` the Potency was “inactive”. With `N#Cc1c(-c2ccc(Cl)cc2)cc(-c2ccccc2)nc1SCC(=O)O` the Potency was “inactive”. For `COC(=O)c1ccc(NC(=O)c2cnn(-c3ccc(Cl)cc3)c2C2CCN(C(=O)OC(C)(C)C)CC2)cc1`, the Potency was inconclusive: 50.1 µM [inhibitor, partial curve]. For `CCc1nn(CC(=O)NCCc2ccc(Cl)cc2)c(=O)c2cc3c(OC)cccc3n12`, the Potency was “inactive”. In the case of `CCSc1ccccc1C(=O)N1CCN(c2nc3ccccc3s2)CC1`, the Potency is reported as “inactive”. With `CC1CCCC(C)N1C(=O)COC(=O)CNC(=O)C12CC3CC(CC(C3)C1)C2` (stereo not drawn) the Potency was inconclusive: 39.8 µM [inhibitor, partial curve]. `Cc1ccc(C(=O)C(C)OC(=O)c2cc(=O)[nH]c3ccccc23)cc1` (stereo not drawn) was tested, and the Potency was “inactive”. For `O=C(O)c1cccc(N2C(=O)c3cccc4cccc(c34)C2=O)c1`, the Potency was “inactive”. With `Cc1cc(=O)[nH]c(N/N=C/C2=C(N3CCOCC3)C(=C\c3ccc(Cl)cc3)/CC2)n1` the Potency was “inactive”. `Cc1cc(C)c(NC(=O)c2cc(C)nc3c2c(C)nn3-c2cccc(F)c2)c(C)c1` was tested, and the Potency was “inactive”. In the case of `COc1ccccc1CSc1ncc(-c2ccc([N+](=O)[O-])cc2)[nH]1`, the Potency is reported as inconclusive: 25.1 µM [inhibitor, partial curve]. With `CCOc1ccc(-c2nnc(NC(=O)Cc3ccc(OC)cc3)o2)cc1` the Potency was “inactive”. For `COC(=O)c1ccc(CNC(=O)Cn2cnc3c(SC)nc(N)nc32)cc1`, the Potency was inconclusive: 100 µM [inhibitor, single point]. `Cc1ccc(CNc2ccc(N3CCOCC3)cc2)cc1` was tested, and the Potency was active: 44.7 µM. In the case of `COC(=O)[C@H](CC(C)C)NCc1cccc(CN[C@@H](CC(C)C)C(=O)OC)c1`, the Potency is reported as “inactive”. For `CCCCc1c(CCC)c(=N)c2ccccc2n1C`, the Potency was active: 89.1 µM. `Cc1ccc(/C=N/NC(=O)c2ccc(NC(=O)c3ccc(Cl)cc3)cc2)o1` was tested, and the Potency was inconclusive: 89.1 µM [inhibitor, single point]. With `O=C(N/N=C/c1cn(-c2ccccc2)nc1-c1ccc2c(c1)OCCO2)c1ccncc1` the Potency was inconclusive: 50.1 µM [inhibitor, partial curve]. With `COc1ccc(C2=NOC(C)(c3nnc(-c4ccccc4)o3)C2)cc1` (stereo not drawn) the Potency was inconclusive: 44.7 µM [inhibitor, partial curve]. `COc1ccc(NC(=O)CN(C)CC(=O)Nc2cccc(F)c2)cc1S(=O)(=O)N1CCCCC1` was tested, and the Potency was active: 2.82 µM. In the case of `Cc1ccc(/C=C/c2onc(C)c2S(=O)(=O)N2CCC(C(=O)N3CCN(C)CC3)CC2)cc1`, the Potency is reported as inconclusive: 89.1 µM [inhibitor, partial curve]. `CCOc1ccc(C2C=C(c3ccccc3)Nc3nnnn32)cc1` (stereo not drawn) was tested, and the Potency was “inactive”. For `CC(C)NCCCOc1ccc(Cl)cc1Br`, the Potency was active: 31.6 µM. For `O=c1cc(Br)c(O)c(Br)cc1Br`, the Potency was active: 22.4 µM. For `O=C(N/N=C/c1ccc(-c2ccc(S(=O)(=O)Nc3ncccn3)cc2)o1)c1cc2ccccc2cc1O`, the Potency was active: 50.1 µM. In the case of `CCCOc1ccc(CN(CCO)CCO)cc1[N+](=O)[O-]`, the Potency is reported as “inactive”. In the case of `N#C/C(=N\Nc1ccccc1)C(N)=S`, the Potency is reported as active: 22.4 µM. In the case of `COc1ccc(N(C(=O)c2ccco2)C(C(=O)NC2CCCC2)c2ccc(N(C)C)cc2)cc1` (stereo not drawn), the Potency is reported as inconclusive: 79.4 µM [inhibitor, partial curve]. For `Cn1nnnc1NCc1ccc(Cl)cc1`, the Potency was “inactive”. With `Cc1cc(/C=C2/C(=N)N3C(=NC2=O)SN=C3S(C)(=O)=O)c(C)n1-c1ccccc1` the Potency was inconclusive: 35.5 µM [inhibitor, partial curve]. With `CCN(CC)C(=O)CSc1n[nH]c(=O)n1CCc1ccccc1` the Potency was “inactive”. In the case of `CCOC(=O)Cc1csc(NC(=O)CSc2nc(C)cc(=O)[nH]2)n1`, the Potency is reported as active: 20 µM. In the case of `Cc1ccc(NC(=O)Cn2cnc3c(oc4ccccc43)c2=O)cc1Cl`, the Potency is reported as “inactive”. With `C/C(=N\Nc1nc2ccccc2[nH]1)c1ccc2c(c1)OCCO2` the Potency was active: 50.1 µM. With `COc1cccc(NC(=O)CCN2CCN(C)CC2)c1` the Potency was inconclusive: 89.1 µM [inhibitor, single point]. With `OCC1(CCCc2ccccc2)CCN(Cc2cc(F)ccc2F)CC1` the Potency was “inactive”. For `COc1ccc(CN2CCN(CC(O)Cn3c4ccccc4c4ccccc43)CC2)cc1` (stereo not drawn), the Potency was inconclusive: 56.2 µM [inhibitor, partial curve]. In the case of `CCOC(=O)C1CCN(C(=O)c2ccc3c(c2)NC(=O)/C(=C\c2ccc(C)cc2)S3)CC1`, the Potency is reported as inconclusive: 17.8 µM [inhibitor, full curve, poor fit]. `COCCn1c(SC(C)C(=O)NC2CC2)nnc1-c1cccc(C)c1` (stereo not drawn) was tested, and the Potency was inconclusive: 39.8 µM [inhibitor, single point]. For `COCC(C)n1c(COc2ccccc2F)nnc1SCC(=O)Nc1oc(C)c2c(C)n[nH]c(=O)c12` (stereo not drawn), the Potency was “inactive”. For `COc1ccc(N2CCN(c3ccc(C(=O)O)cc3[N+](=O)[O-])CC2)cc1`, the Potency was “inactive”. In the case of `O=C(NCc1ccccc1)c1cccn1-c1nnc(N2CCCCC2)s1`, the Potency is reported as “inactive”. In the case of `CCOC(=O)c1sc2cc([N+](=O)[O-])cc(SCCO)c2c1N`, the Potency is reported as “inactive”. For `CC(C)=CCC/C(C)=C/CNC(=O)C[C@H]1C[C@H](C(=O)N(C(C)C)C(C)C)[C@@]2(C)c3[nH]c4cc(CCC(=O)N(C)C)ccc4c3CCN2C1=O`, the Potency was inconclusive: 50.1 µM [inhibitor, partial curve].
